Experimental data reported in ChEMBL document CHEMBL1157539, “Thousands of chemical starting points for antimalarial lead identification” (Nature, 2010).
In all, about 13,000 compounds were measured (“IFI”: median about 4, highest 2% from about 17 on). This is one part of the list.

Assay: GSK_TCMDC: Inhibition Frequency Index (IFI). The number of non-kinase HTS assays where a compound showed > 50 % inhibition, expressed as a percentage of the number of such assays in which the compound was tested (-0 is zero)
Type: functional

Row | SMILES | IFI [%]
1 | c1cc(CN2CCCCC2)cc(-c2cccc(-c3nc4ccccc4[nH]3)c2)c1 | 2.82
2 | Cc1ccc2nc(-c3ccc(C(=O)NC4CCN(Cc5ccccc5)CC4)cc3)[nH]c2c1C | 2.16
3 | COc1cc(NCCCNCc2cn(Cc3cc(Br)cc(Br)c3)c3ccccc23)nc2ccccc12 | 17.4
4 | COc1ccc2nccc([C@@H](O)CN3CCC(NCc4cc5ccccc5[nH]4)CC3)c2c1 | 1.47
5 | O=C(Nc1nc(-c2ccccn2)cc2ccccc12)c1cccc(Cl)c1 | 5.41
6 | COc1ccc(Nc2nc(NCc3cccc(NS(C)(=O)=O)c3)cc(-c3ccc(OC)cc3)n2)cc1 | 1.56
7 | COC(=O)c1cccc(CNCc2cccc(-c3ccc(-c4nc5ccccc5[nH]4)s3)c2)c1 | 1.9
8 | Cc1nc(N)nc(N)c1-c1ccc(Br)c(Br)c1 | 4.62
9 | COc1cc(NCC(O)CNc2cc(Cl)nc3ccccc23)nc2ccccc12 (stereo not drawn) | 1.48
10 | COc1ccc2nccc(N3CCC(NCCNCc4ccc5c(n4)NC(=O)CS5)C3)c2n1 (stereo not drawn) | 3.52
11 | CNC(=O)Cc1ccc(C(=O)Nc2cccc(-c3cccc(-c4nc5cc(C(F)(F)F)ccc5[nH]4)c3)c2)cc1 | 5.31
12 | Fc1ccc2[nH]c(-c3ccc(-c4ccc(CNCCN5CCNCC5)cc4)cc3)nc2c1 | 11.9
13 | Cn1nccc1C(=O)NCCNCc1cccc(-c2cccc(-c3nc4cc(F)ccc4[nH]3)c2)c1 | 6.86
14 | c1cc(CNCC2CCCO2)cc(-c2cccc(-c3nc4ccccc4[nH]3)c2)c1 (stereo not drawn) | 3
15 | O=C(NCc1ccccc1)OC1CNCCC1c1ccc(C(O)Cc2ccccc2)cc1 (stereo not drawn) | 1.54
16 | O=C(O[C@H]1CN[C@H](C#Cc2cc3c(Nc4ccc(OCc5cccc(F)c5)c(Cl)c4)ncnc3s2)C1)N1CCCC1 | 2.14
17 | COc1ccc(-c2ccc3c(-c4ccc(F)cc4)cnc(N)c3c2)cn1 | 1.4
18 | CCCC[C@@H](C(=O)NCCc1ccc(Cl)cc1)N1C(=O)CCC1C(=O)Nc1ccc(Cl)c(Cl)c1 (stereo partly drawn) | 1.46
19 | c1ccc(-c2[nH]c3ccccc3c2CN2CCC(N3CCCCC3)CC2)nc1 | 2.44
20 | CN(C)CCOc1ccnc2ccc(NC(=O)Cc3ccc(-c4ccncc4)c4ccccc34)cc12 | 3.79

Row | SMILES | IFI [%]
21 | O=C(Nc1cccc(C(F)(F)F)c1)c1cccc(S(=O)(=O)NCC2CCCN(Cc3ccccc3)C2)c1 (stereo not drawn) | 4.82
22 | NC(=O)c1sc(-n2cnc3ccc(C(=O)NCCN4CCOCC4)cc32)cc1OCc1ccccc1C(F)(F)F | 2.63
23 | Cc1cc(=NN=Cc2ccc(Cl)cc2)c2ccc(F)cc2[nH]1 | 0.76
24 | CCc1c(C(=O)NC2CCC(N3CCC(c4ccccc4C)CC3)CC2)[nH]c2ccc(Br)cc12 (stereo not drawn) | 15.8
25 | COc1cc(F)c2ncc(Cl)c(CCN3CCC(NCc4ccc5c(n4)NC(=O)CO5)CC3)c2c1 | 4.41
26 | CC[C@H]1CN(C/C=C/c2ccc(OC)cc2)CC[C@H]1CCCc1ccnc2ccc(O)cc12 | 4.58
27 | CC(C)(C)c1cc(Cl)cc(C(=O)Nc2cc([N+](=O)[O-])ccc2Cl)c1O | 13.7
28 | CCCc1cc(NCC)nc(Nc2ccc(F)cc2)n1 | 3.03
29 | Cc1cc(N[C@@H](Cc2ccccc2)C(=O)NCc2cccc(F)c2)nc(NCCCOC(C)C)n1 | 18.2
30 | CC(CN1CCN(C)CC1)C(=O)Nc1ccc(-c2csc(-c3nc4ccccc4[nH]3)c2)cc1 (stereo not drawn) | 1.79
31 | CC(C)(C)c1ccc(NC(=O)c2cccc(CN3CCCN(Cc4ccc(F)cc4)CC3)c2)cc1 | 10
32 | C=C(C)Cn1cc(C2CCN(CCCCNC(=O)c3sc(-c4ccc(Cl)cc4Cl)nc3CO)CC2)c2ccccc21 | 9.01
33 | CC(C)Cn1c(N)cc(=O)n(C)c1=O | -0
34 | Cc1cc(OCCCN2CCC(NS(=O)(=O)c3cccc(Br)c3)CC2)c2ccccc2n1 | 2.59
35 | CCn1c(-c2nonc2N)nc2c(-c3cccc(Cl)c3)ncc(OCCCNCc3cnc(C)nc3N)c21 | 7.62
36 | Cc1cc(N[C@@H](Cc2ccccc2)C(=O)NCCCOC(C)C)nc(NCCc2ccc(F)cc2)n1 | 2.44
37 | Brc1cc(CNCCCNc2nc3ccccc3[nH]2)sc1Br | 5.84
38 | COc1ccc(Nc2nccc(NCC(O)c3ccc(C(F)(F)F)cc3)n2)cc1 (stereo not drawn) | 8.65
39 | Cn1cccc1C(=O)C(=O)Nc1ccc(-c2ccc(-c3nc4cc(F)ccc4[nH]3)cc2)cc1 | 5.26
40 | COc1cc2c(cc1OC)C(C(=O)Nc1ccc(C(F)(F)F)cc1)C(c1cccs1)N(C)C2=O (stereo not drawn) | 4.26

Row | SMILES | IFI [%]
41 | O=S(=O)(NCCN1CCCC1)c1ccc(-c2ccc(CNCc3ccsc3)cc2)s1 | 9.26
42 | O=C(Nc1cccc(OCc2ccccc2)c1)c1ccc(CN2CCC(Cc3ccccc3)CC2)cc1 | 5.26
43 | CCNc1cc(C)nc(Nc2ccc(NC(=O)c3ccc(OC)c(OC)c3)cc2)n1 | 3.92
44 | CC[C@@]1(O)C(=O)OCc2c1cc1n(c2=O)Cc2c-1nc1cc3c(cc1c2CN1CCN(C)CC1)OCCO3 | 5.19
45 | N#Cc1c(-c2ccccc2)cn2c1[nH]c(=O)c1ccccc12 | 1.56
46 | CCCC(=O)c1cnc2c(I)cccc2c1Nc1ccccc1C | 2.27
47 | CC(C)CNC(=O)c1cncc(-c2ccc(CN(C)C3CCN(C)CC3)cc2)c1 | 0
48 | CCc1ccc(O)c(-c2cc(C(=O)Nc3cccnc3)[nH]n2)c1 | 1.45
49 | COc1ccc2nccc(N3CCC(SCCNCc4ccc5c(n4)NC(=O)CS5)C3)c2n1 (stereo not drawn) | 12.1
50 | COc1cc2c(cc1N1CC(C)NC(C)C1)N(C(=O)c1ccc(-c3ccc(-c4ncc[nH]4)cc3C)cc1)CC2 (stereo not drawn) | 1.45
51 | O=C(Nc1ccc(Br)cc1)N(CCN1CCOCC1)CC(O)COCc1ccc(F)cc1 (stereo not drawn) | 1.42
52 | CCCCN1CCN(CCCCNc2c3ccccc3nc3ccccc23)CC1 | 5.67
53 | Cc1ccc(C2CCN(CCCCNC(=O)c3ccc(NC(=O)c4ccc(Cl)cc4)cc3)CC2)c(OCC2CC2)c1 | 8.33
54 | CCc1cn2c3c(cc(C(=O)N[C@@H](Cc4ccccc4)[C@H](O)CNCc4cccc(C)c4)cc13)N(C)S(=O)(=O)CC2 | 5.8
55 | Nc1ccc(-c2nc3cc(Oc4ccc5[nH]c(-c6ccc(N)cc6)nc5c4)ccc3[nH]2)cc1 | 5.52
56 | Cc1ccc(Nc2nc(C)cc(NC3CC3)n2)cc1 | 4.62
57 | OC1CCCN(Cc2cccc(-c3ccc(-c4nc5ccccc5[nH]4)cc3)c2)C1 (stereo not drawn) | -0
58 | COc1ccc(Nc2nc(C)cc(NCc3ccc(-c4c(C)noc4C)cc3)n2)cc1 | 10
